This passage reports binding signal (RPM ratio (pull-down/input)) results from paper PMC12820563.

Some of the results follow. The list includes weakly bound sequences.

In this assay the target is T1, MBP-FoxP3dN (UniProt Q99JB6).
T1 sequence: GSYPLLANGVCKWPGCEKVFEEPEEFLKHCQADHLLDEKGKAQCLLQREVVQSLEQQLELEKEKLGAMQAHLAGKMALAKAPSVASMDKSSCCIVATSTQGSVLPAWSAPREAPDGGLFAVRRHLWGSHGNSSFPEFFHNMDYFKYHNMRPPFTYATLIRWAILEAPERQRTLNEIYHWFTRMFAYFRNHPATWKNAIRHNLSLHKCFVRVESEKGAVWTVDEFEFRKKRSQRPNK
The assay is described as follows: PD-seq (MBP pull-down with sequencing). The conditions noted are these: 20 mM Tris-HCl pH 7.5, 100 mM NaCl, 1.5 mM MgCl2, 0.4 uM protein, 0.1 uM dsDNA library, 30 min, room temperature, amylose pull-down; high values mean tight binding; double strand, one strand shown.
With “GATGATTGTTCTCCCAGCTGATGAATTCGGACACTCGAGTAAACAAATTTTCCTAATCTTTCTGTTCAAGCGCCATCTAC”, the binding signal (RPM ratio (pull-down/input)) was 1.25.
For “GATGATTGTTCTCCCAGCTGATGAATTGTTTCCTTCGAGTAAACAAATTTTCCTAATCTTTCTGTTCAAGCGCCATCTAC”, the binding signal (RPM ratio (pull-down/input)) came to 1.52.
For “GATGATTGTTCTCCCAGCTGATGAATTCTTCAAATCGAGTAAACAAATTTTCCTAATCTTTCTGTTCAAGCGCCATCTAC”, the binding signal (RPM ratio (pull-down/input)) came to 0.265.
Under “GATGATTGTTCTCCCAGCTGATGAATTACGACTCTCGAGTAAACAAATTTTCCTAATCTTTCTGTTCAAGCGCCATCTAC” stands 1.93; under “GATGATTGTTCTCCCAGCTGATGAATTGGGAATTTCGAGTAAACAAATTTTCCTAATCTTTCTGTTCAAGCGCCATCTAC”, 1.3; under “GATGATTGTTCTCCCAGCTGATGAATTCAGACTTTCGAGTAAACAAATTTTCCTAATCTTTCTGTTCAAGCGCCATCTAC”, 0.914.
“GATGATTGTTCTCCCAGCTGATGAATTCTTAGATTCGAGTAAACAAATTTTCCTAATCTTTCTGTTCAAGCGCCATCTAC”: the binding signal (RPM ratio (pull-down/input)) stood at 0.257.
“GATGATTGTTCTCCCAGCTGATGAATTTGCCCGCTCGAGTAAACAAATTTTCCTAATCTTTCTGTTCAAGCGCCATCTAC”: the binding signal (RPM ratio (pull-down/input)) is 0.355.
For “GATGATTGTTCTCCCAGCTGATGAATTGATCAAATCGAGTAAACAAATTTTCCTAATCTTTCTGTTCAAGCGCCATCTAC” the value was 0.304.
On to “GATGATTGTTCTCCCAGCTGATGAATTGGGAAAGTCGAGTAAACAAATTTTCCTAATCTTTCTGTTCAAGCGCCATCTAC”, for which the binding signal (RPM ratio (pull-down/input)) was 0.221.
For “GATGATTGTTCTCCCAGCTGATGAATTGTTAGATTCGAGTAAACAAATTTTCCTAATCTTTCTGTTCAAGCGCCATCTAC” the value was 0.635; for “GATGATTGTTCTCCCAGCTGATGAATTTAGTAAATCGAGTAAACAAATTTTCCTAATCTTTCTGTTCAAGCGCCATCTAC”, 0.439; for “GATGATTGTTCTCCCAGCTGATGAATTTGAACAATCGAGTAAACAAATTTTCCTAATCTTTCTGTTCAAGCGCCATCTAC”, 0.363.
Regarding “GATGATTGTTCTCCCAGCTGATGAATTGAGCGAATCGAGTAAACAAATTTTCCTAATCTTTCTGTTCAAGCGCCATCTAC”, the binding signal (RPM ratio (pull-down/input)) was found to be 0.249.
For “GATGATTGTTCTCCCAGCTGATGAATTAAATGGATCGAGTAAACAAATTTTCCTAATCTTTCTGTTCAAGCGCCATCTAC” the value was 0.314.
Under “GATGATTGTTCTCCCAGCTGATGAATTGAATTATTCGAGTAAACAAATTTTCCTAATCTTTCTGTTCAAGCGCCATCTAC” stands 1.34; under “GATGATTGTTCTCCCAGCTGATGAATTGGTAGCATCGAGTAAACAAATTTTCCTAATCTTTCTGTTCAAGCGCCATCTAC”, 1.39.
In the case of “GATGATTGTTCTCCCAGCTGATGAATTAGACCATTCGAGTAAACAAATTTTCCTAATCTTTCTGTTCAAGCGCCATCTAC”, the binding signal (RPM ratio (pull-down/input)) came to 0.44.
Under “GATGATTGTTCTCCCAGCTGATGAATTACTTCCCTCGAGTAAACAAATTTTCCTAATCTTTCTGTTCAAGCGCCATCTAC” stands 0.245; under “GATGATTGTTCTCCCAGCTGATGAATTTGCTAACTCGAGTAAACAAATTTTCCTAATCTTTCTGTTCAAGCGCCATCTAC”, 0.744.
Under “GATGATTGTTCTCCCAGCTGATGAATTGCCCTATTCGAGTAAACAAATTTTCCTAATCTTTCTGTTCAAGCGCCATCTAC” stands 0.508; under “GATGATTGTTCTCCCAGCTGATGAATTGGTCCCCTCGAGTAAACAAATTTTCCTAATCTTTCTGTTCAAGCGCCATCTAC”, 0.358; under “GATGATTGTTCTCCCAGCTGATGAATTTTATTGTTCGAGTAAACAAATTTTCCTAATCTTTCTGTTCAAGCGCCATCTAC”, 6.02.
For “GATGATTGTTCTCCCAGCTGATGAATTGCCGCCCTCGAGTAAACAAATTTTCCTAATCTTTCTGTTCAAGCGCCATCTAC” the value was 0.868; for “GATGATTGTTCTCCCAGCTGATGAATTGACGTACTCGAGTAAACAAATTTTCCTAATCTTTCTGTTCAAGCGCCATCTAC”, 0.483; for “GATGATTGTTCTCCCAGCTGATGAATTTTATTTCTCGAGTAAACAAATTTTCCTAATCTTTCTGTTCAAGCGCCATCTAC”, 1.53.
Regarding “GATGATTGTTCTCCCAGCTGATGAATTTAAGCCGTCGAGTAAACAAATTTTCCTAATCTTTCTGTTCAAGCGCCATCTAC”, the binding signal (RPM ratio (pull-down/input)) was determined as 0.4.
Under “GATGATTGTTCTCCCAGCTGATGAATTTGCGTAATCGAGTAAACAAATTTTCCTAATCTTTCTGTTCAAGCGCCATCTAC” stands 1.8.
For “GATGATTGTTCTCCCAGCTGATGAATTAGCACGATCGAGTAAACAAATTTTCCTAATCTTTCTGTTCAAGCGCCATCTAC” the value was 0.311; for “GATGATTGTTCTCCCAGCTGATGAATTGCAGTTTTCGAGTAAACAAATTTTCCTAATCTTTCTGTTCAAGCGCCATCTAC”, 1.18.
Regarding “GATGATTGTTCTCCCAGCTGATGAATTATACGTCTCGAGTAAACAAATTTTCCTAATCTTTCTGTTCAAGCGCCATCTAC”, the binding signal (RPM ratio (pull-down/input)) is 0.608.
